According to publication PMC4336329 (PLoS ONE, 2015):
About 14,000 (4.5%) of roughly 310,000 compounds showed an effect of 50% or more. Effects have a minus sign here. The list shows a part of the results.

Target: human ether-à-go-go-related gene (hERG) potassium channel (human, UniProt Q12809)
Assay: primary screen, population patch clamp on CHO cells stably expressing hERG
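Also: peak tail current of the secondary pulse compared with the same well before compound.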

Sequence of human ether-à-go-go-related gene (hERG) potassium channel (Q12809 whole entry, looked up): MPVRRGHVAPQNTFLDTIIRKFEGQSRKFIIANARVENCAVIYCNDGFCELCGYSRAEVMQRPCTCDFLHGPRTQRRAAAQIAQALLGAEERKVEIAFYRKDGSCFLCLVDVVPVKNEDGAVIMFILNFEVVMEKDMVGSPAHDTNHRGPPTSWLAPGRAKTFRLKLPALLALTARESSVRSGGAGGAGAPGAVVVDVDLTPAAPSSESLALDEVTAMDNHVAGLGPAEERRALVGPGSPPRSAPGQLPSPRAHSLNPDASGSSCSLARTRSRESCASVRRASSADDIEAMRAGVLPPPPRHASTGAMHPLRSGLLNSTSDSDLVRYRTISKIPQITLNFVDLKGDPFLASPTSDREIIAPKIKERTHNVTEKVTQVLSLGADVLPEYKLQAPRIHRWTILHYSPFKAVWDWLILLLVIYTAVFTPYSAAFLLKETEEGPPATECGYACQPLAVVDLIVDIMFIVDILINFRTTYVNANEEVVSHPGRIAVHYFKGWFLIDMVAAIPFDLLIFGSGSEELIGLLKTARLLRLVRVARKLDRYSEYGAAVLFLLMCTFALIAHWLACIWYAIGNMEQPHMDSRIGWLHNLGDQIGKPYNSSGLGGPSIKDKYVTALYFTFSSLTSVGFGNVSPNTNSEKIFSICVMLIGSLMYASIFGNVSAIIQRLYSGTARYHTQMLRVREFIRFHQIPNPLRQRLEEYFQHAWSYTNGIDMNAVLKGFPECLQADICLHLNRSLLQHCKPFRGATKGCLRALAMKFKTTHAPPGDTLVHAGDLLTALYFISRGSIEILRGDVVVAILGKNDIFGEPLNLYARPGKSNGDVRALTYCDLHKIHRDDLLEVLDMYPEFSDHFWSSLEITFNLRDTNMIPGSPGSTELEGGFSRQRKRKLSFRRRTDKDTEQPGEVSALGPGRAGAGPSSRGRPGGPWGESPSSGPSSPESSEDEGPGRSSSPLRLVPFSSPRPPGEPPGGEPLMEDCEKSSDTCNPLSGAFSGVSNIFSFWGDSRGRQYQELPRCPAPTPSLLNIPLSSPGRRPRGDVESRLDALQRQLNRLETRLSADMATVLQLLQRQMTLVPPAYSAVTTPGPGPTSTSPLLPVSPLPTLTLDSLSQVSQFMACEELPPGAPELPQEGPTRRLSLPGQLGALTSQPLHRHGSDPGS

| SMILES | hERG current change (%, negative = inhibition) at 10uM [%] |
| --- | --- |
| COc1ccccc1CN(C(=O)Cc1cccs1)C(C(=O)NC1CCCC1)c1ccncc1 (stereo not drawn) | -4.43 |
| CC(=O)C1=C(C)Nc2ncnn2C1c1ccccc1F (stereo not drawn) | 8.25 |
| C/C(=N\NC(=O)c1cnccn1)c1ccc([N+](=O)[O-])cc1 | 5.39 |
| C=CCC1NS(=O)(=O)OC2CCCCC12 (stereo not drawn) | 7.26 |
| COc1ccc(CCNC(=O)CNCCc2ccc(F)cc2)cc1.O=C(O)C(=O)O | -38.1 |
| CCC(=O)Nc1ccc(Oc2ccc3c(c2)C(=O)NC3=O)cc1 | 10.7 |
| Fc1ccc(OCCOCCN2CCNCC2)cc1.O=C(O)C(=O)O | 6.98 |
| O=C(CCC(=O)c1cccs1)NCc1ccncc1 | 17.2 |
| CCOC(=O)Cn1cc(-c2ccccc2)nn1 | -5.79 |
| Cc1ccc(-n2[nH]c(C)c(/C=N/N3C(=O)c4cccc5cccc(c45)C3=O)c2=O)cc1 | -17 |
| Nn1c(SCc2ccc(Br)cc2)nnc1-c1ccccn1 | 17.5 |
| COC(=O)C(C)Sc1nnc(Cc2cc(=O)[nH]c(=O)[nH]2)n1-c1cc(C)ccc1C (stereo not drawn) | 6.3 |
| CCOC(=O)C1=C(N)n2c(s/c(=C/c3ccco3)c2=O)=C(C(=O)OC)C1c1ccco1 (stereo not drawn) | -2.57 |
| O=C(O)CCCCCNS(=O)(=O)c1ccc2c(c1)OCCO2 | 19 |
| O=C(NC1CS(=O)(=O)CC1NCc1ccco1)c1ccccc1 (stereo not drawn) | 2.09 |
| CN(CCC1CCOCC1)C(=O)CC1C(=O)NCCN1C/C=C/c1ccccc1 (stereo not drawn) | 21.3 |
| Cc1ccc(C(=O)COC(=O)CNC(=O)c2cccs2)cc1C | -22 |
| CC(C)CNc1nnnc2c1sc1nc(N3CCOCC3)c3c(c12)CC(C)(C)SC3 | -20.8 |
| CN1CCN(NC(=O)c2ccc(S(=O)(=O)N3CCCCCC3)cc2)CC1.Cl | 8.34 |

| SMILES | hERG current change (%, negative = inhibition) at 10uM [%] |
| --- | --- |
| COc1ccc(C(C#N)(CCC#N)CCC#N)cc1OC | -11.3 |
| CC(NS(=O)(=O)c1ccc([N+](=O)[O-])cc1)C(c1cccs1)N1CCOCC1 (stereo not drawn) | -29.9 |
| Cc1cc(=O)oc2cc(NC(=O)c3ccccc3C(=O)O)ccc12 | 15.7 |
| Cc1ccc(NC(=O)CC2OC(=O)c3ccccc32)cc1S(=O)(=O)N1CCOCC1 (stereo not drawn) | -14.5 |
| COC(=O)c1[nH]c2cccc(OC)c2c1NC(=O)CCN1CCSCC1 | 22 |
| CCc1nnc(NC(=O)c2ccc(S(=O)(=O)NCC(C)C)cc2)s1 | 6.37 |
| COc1ccccc1N1CCN(c2nc3ccccc3nc2C(C#N)C(=O)OC(C)C)CC1 (stereo not drawn) | -12 |
| Cc1cccc(C)c1OCC(O)CN.Cl.O (stereo not drawn) | 4.14 |
| CCC(=O)OCC(=O)Nc1ncc(C(F)(F)F)cc1Cl | -1.65 |
| COc1ccc(CC(=O)OCC(=O)Nc2cccc(Cl)c2)cc1 | 16.1 |
| O=C(COC(=O)CCCN1C(=O)c2ccccc2C1=O)Nc1cc(Cl)cc(Cl)c1 | -3.11 |
| Cc1cccc(C)c1N1C(=O)CCC(C)(C)C1=O | 18.3 |
| O=C(NCC(=O)N1CCN(c2ccccc2O)CC1)c1ccc2ccccc2c1 | 9.32 |
| C=CCOC(=O)C1=C(C)OC(N)=C(C#N)C1c1ccco1 (stereo not drawn) | 12.7 |
| Cc1ccc(NC(=O)C2CCN(S(=O)(=O)c3ccc(Cl)c(C(F)(F)F)c3)CC2)nc1 | -16.4 |
| Cl.NC(=O)c1c(NC(=O)c2ccccc2)sc2c1CCN(Cc1ccccc1)C2 | 7.85 |
| CNS(=O)(=O)c1cn(CC(=O)NCc2ccc(F)cc2)cc1S(=O)(=O)NC | 16.5 |
| S=c1[nH]nc(Cc2n[nH]c(=S)n2-c2ccccc2)n1-c1ccccc1 | 14.7 |
| COCC(C)N=CC1=C(O)CC(C)(C)CC1=O (stereo not drawn) | 12.8 |

| SMILES | hERG current change (%, negative = inhibition) at 10uM [%] |
| --- | --- |
| c1ccc(CSc2nnc(-c3sccc3-n3cccc3)o2)cc1 | 0.0569 |
| Cc1c(N2C(=O)/C(=C3/C(=O)N(C)c4ccccc43)SC2=S)c(=O)n(-c2ccccc2)n1C | 4.14 |
| CCOC(=O)c1nccnc1C(=O)Nc1cccc(C(F)(F)F)c1 | -19.3 |
| CN(Cc1nc(-c2cnccn2)no1)CC(O)c1ccccc1 (stereo not drawn) | 3.4 |
| CC(C)C(C(=O)Nc1ccc(N2CCOCC2)cc1)N1C(=O)c2ccccc2C1=O (stereo not drawn) | -5.2 |
| C#CC(CC)(CC)NC(=O)/C=C/C(=O)O | 18 |
| CN(CC(=O)Nc1ccccc1Cl)C(=O)CSc1ncc(C(F)(F)F)cc1Cl | 9.55 |
| O=C(Nc1nnc(-c2ccc(F)cc2)o1)C1CCCN1S(=O)(=O)c1cccs1 (stereo not drawn) | -14.1 |
| C=CCn1c(C)nnc1SCC(=O)Nc1nccs1 | 16.6 |
| CCN(C(=O)COC(=O)c1cc([N+](=O)[O-])ccc1N1CCOCC1)C1CCS(=O)(=O)C1 (stereo not drawn) | 1.37 |
| NC(=S)N/N=C/c1cn(-c2ccccc2)nc1-c1cccnc1 | 11.8 |
| Cc1cc(C)c2nc(N3CCCC(C(=O)NCCCN4CCOCC4)C3)sc2c1 (stereo not drawn) | -7.17 |
| c1ccc(CCn2cnc3ccccc32)cc1 | 10.1 |
| FC(F)(F)Oc1ccccc1-c1nnc(-c2cccc(C(F)(F)F)c2)o1 | 3.84 |
| O=C(Nc1ccccc1)c1ccc(COc2ccccc2)cc1 | 0.885 |
| COC(=O)c1ccccc1NC(=O)c1cnc2sccn2c1=O | 1.97 |
| CCC1(c2ccccc2)NC(=O)N(CC(=O)Nc2cc(Cl)ccc2N2CCN(C)CC2)C1=O (stereo not drawn) | -60.8 |
| O=C(O)CCCCCNC(=O)/C=C/c1ccco1 | 24.4 |
| CC(C)(C)c1ccc(CNC(=O)c2ccc3c(c2)NC(=O)CO3)cc1 | 4.11 |
